Converted amounts (≈) assume the structure as drawn. Where a name gives a salt, the structure may show the parent alone. Read-outs that look alike come from different tables or passages of the source.
Tests used:
S. hyodysenteriae = assay: MIC determination by agar dilution, 10 strains from porcine faeces; type: cell-based, Serpulina hyodysenteriae; conditions: Brachyspira hyodysenteriae
Method: Minimum inhibitory concentrations (MICs) are determined against 10 strains of S. hyodysenteriae isolated from porcine faeces, by the agar dilution method. NCTC (National Collection of Type Cultures) strains or reference strains are used as controls in all MIC tests. The agar medium for S. hyodysenteriae consists of BAB2 (Unipath CM271) containing 7% whole defibrinated sterile sheep blood. All antimicrobial agents are tested in doubling dilutions. Prepared antibiotic dilutions are added to an appropriate volume of MH agar, previously cooled to 50° C., mixed and 20 ml volumes poured. All S. hyodysenteriae incubations are performed in an anaerobic work station at 37° C. (+/-0.5° C.) (Don Whitley Scientific) which provides a strict anaerobic atmosphere comprising 80% nitrogen, 10% hydrogen and 10% carbon dioxide. All other incubations are performed at 37° C. All strains are incubated in an […] atmosphere at 37° C. for 24 hours. The numbers of the organisms are adjusted to an optical density (OD) equivalent to 1×10^8 colony forming units (cfu) per ml, using MH broth as a blank. The antibiotic containing plates are inoculated in duplicate using a multipoint inoculator (Denley Instruments) which delivers a plate inoculum of approximately 1 μl giving an inoculum of 10^4 -10^5 cfu per spot for all strains (Amon, J. Antimicrob. Chemother. 21 [1988] 701-710; Ericsson et al., Acta Pathol. Microbiol. et Immunol. Scand. 217 [1971] (B) Suppl., 1-90). Control plates are incubated under the same conditions as the test plates. The MICs are read after 24 and 48 hours, the latter being the definitive reading. The MIC is defined as the lowest concentration of antibiotic on which there is no growth, disregarding a single colony or a faint haze caused by the inoculum (National Committee for Clinical Laboratory Standards [1989], Antimicrobial Susceptibility Testing, NCCLC Publications SC3, Villanova, Pa., USA).

Serpulina hyodysenteriae = assay: MIC determination on agar, 10 S. hyodysenteriae strains; type: cell-based
Mycoplasma gallisepticum [1] = assay: Challenge study, prevention of Mycoplasma gallisepticum infection; type: in vivo, male broiler chickens; conditions: tylosin 0.05%
Method: Groups of male broiler chickens are infected with a virulent strain of Mycoplasma gallisepticum (MG) and each group medicated respectively with one of the following: valnemulin (concentrations of 0.00312, 0.00625, 0.0125 and 0.025%), tiamulin (0.00625, 0.0125 and 0.025%), and tylosin (0.05%). Infection is effected on day 2 by injection of 0.1 ml of Mycoplasma gallisepticum culture containing approximately 10^6 cfu of viable organisms into each lung (Jordan, F. T. W., The Veterinary Record 127 [1990] 502) and medication is commenced within an hour of infection and continued for three consecutive days. There is also an infected untreated group and an uninfected group.

Mycoplasma gallisepticum [2] = assay: MIC, serial microdilution, Mycoplasma gallisepticum reference strains; type: cell-based
Method: (§1) The antimicrobial effect of vainemulin hydrochloride is determined by means of a standard serial microdilution technique in comparison to tylosin (Tylan soluble) and tiamulin hydrogen fumarate.
(§2) 12.8 mg of the test compound are dissolved in 100 ml of distilled water to obtain a stock solution which is stored at -20° C. until used. Mycoplasma gallisepticum reference strain used are X95, S6 Holland, S6 Bench (England), MS-16 (Japan), MK-7 (Japan) and 1226, and various fresh field isolates.
(§3) The antibiotic-sensitivity of the strains is examined using a modified microbroth dilution procedure (Stipkovits et al., Vet. Microbiol. 15 [1987] 65-70). Testing medium is added (100 μl) to all the wells of microtitration plates, using doubling dilutions of antibiotics. The inoculum (100 μl) contains 10^5 cfu/ml. The plates are sealed with sellotape and incubated at 37° C. over a period of 3 days. The lowest concentration of the antibiotic completely preventing colour change of the media at the third day reading is the minimal inhibitory concentration (MIC). The wells without colour range are checked for viability of mycoplasmas by plating them on agar medium. All Mycoplasma strains are propagated in 10 ml of medium B (Ern.o slashed., H. and Stipkovits, L., Acta Vet. Scand. 14 [1973] 436-449). After incubation at 37° C. until early log phase of growth, 1 ml aliquots of culture are dispensed in tubes as seed cultures and stored at -20° C. The glucose fermenting Mycoplasma strains are tested in modified medium Bg supplemented with 1% glucose (pH 7.8), the arginine hydrolysing strains in medium Ba (Ern.o slashed., H. and Stipkovits, L., supra, 450-463) containing 1% arginine (pH 7.3) and the glucose- and arginine-negative strains in medium B including 1% triphenyltetrazolium chloride.
(§4) The average MIC values for different strain groups and antibiotics taking into consideration dilutions are calculated.

Mycoplasma gallisepticum [3] = assay: Challenge study, treatment of Mycoplasma gallisepticum infection; type: in vivo, male broiler chicks
Source text: Groups of male broiler chicks are infected with a virulent strain of Mycoplasma gallisepticum (MG) and each group medicated respectively with valnemulin at a concentration of 0.0125%, 0.025%, 0.05%, tiamulin at the same concentration, tylosin 0.05% and a […], spectinomycin combination (Linco-Spectin) 0.083%. There is also one infected group left untreated and an uninfected group. The chicks are infected at two days of age by the injection of 3.4×10^5 organisms into each lung. Medication in the drinking water is commenced 24 hours later for three successive days except for Linco-Spectin with which treatment was continued for 5 days.

[4] = tested on: mycoplasma isolates of chicken origin; assay: MIC, serial microdilution, mycoplasma isolates of chicken origin; type: cell-based
Method: as §1, §2, §3, §4

## Cc1ncc([N+](=O)[O-])n1C [dimetridazole]
S. hyodysenteriae
  MIC: 30 µg/mL (≈ 213 µM)
Serpulina hyodysenteriae
  number of strains with MIC 0.500 μg/ml: 2
  number of strains with MIC 1 μg/ml: 2
  number of strains with MIC 2 μg/ml: 1
  number of strains with MIC 8 μg/ml: 1
  number of strains with MIC 16 μg/ml: 1
  number of strains with MIC 64 μg/ml: 3

## CCC[C@@H]1C[C@@H](C(=O)N[C@@H]([C@H]2O[C@H](SC)[C@H](O)[C@@H](O)[C@H]2O)[C@@H](C)O)N(C)C1 [lincomycin hydrochloride]
S. hyodysenteriae
  MIC: 50 µg/mL
Serpulina hyodysenteriae
  number of strains with MIC 64 μg/ml: 1
  number of strains with MIC 128 μg/ml: 3
  number of strains with MIC >128 μg/ml: 6

## CC[C@H]1OC(=O)C[C@@H](O)[C@H](C)[C@@H](O[C@@H]2O[C@H](C)[C@@H](O[C@H]3C[C@@](C)(O)[C@@H](O)[C@H](C)O3)[C@H](N(C)C)[C@H]2O)[C@@H](CC=O)C[C@@H](C)C(=O)/C=C/C(C)=C/[C@@H]1CO[C@@H]1O[C@H](C)[C@@H](O)[C@@H](OC)[C@H]1OC [tylosin]
Mycoplasma gallisepticum [1]
  serological results: relatively high proportion of positive reactors
Mycoplasma gallisepticum [1]; valnemulin 0.0125 and 0.025%, tiamulin three doses
  prevention of clinical signs and mortality: equally satisfactory
Mycoplasma gallisepticum [1]; valnemulin 0.0125 and 0.025%, tiamulin
  lesions (frequency and severity): fewer chicks and were less severe
Mycoplasma gallisepticum [2]; Mycoplasmoides gallisepticum
  MIC: 0.0312 µg/mL (≈ 0.0341 µM)
Mycoplasma gallisepticum [2]; strain 1226
  MIC: 0.0312 µg/mL (≈ 0.0341 µM)
Mycoplasma gallisepticum [2]; strain Holland
  MIC: 0.0312 µg/mL (≈ 0.0341 µM)
Mycoplasma gallisepticum [2]; strain MK-7
  MIC: 0.0312 µg/mL (≈ 0.0341 µM)
Mycoplasma gallisepticum [2]; strain MS-16
  MIC: 0.0312 µg/mL (≈ 0.0341 µM)
S. hyodysenteriae
  MIC: 200 µg/mL (≈ 218 µM)
Serpulina hyodysenteriae
  number of strains with MIC 128 μg/ml: 1
  number of strains with MIC >128 μg/ml: 9
Mycoplasma gallisepticum [3]; tiamulin and tylosin
  lesions: only a few
Mycoplasma gallisepticum [3]; valnemulin 3 groups, tylosin 0.05%
  recovery of Mycoplasma at 23 days: not recovered
[4]; isolate 20002, read-out: MIC
  MIC: 0.25 µg/mL (≈ 0.273 µM)
[4]; isolate 20006, read-out: MIC
  MIC: 0.25 µg/mL (≈ 0.273 µM)
[4]; isolate 20174, read-out: MIC
  MIC: 0.25 µg/mL (≈ 0.273 µM)
[4]; isolate 20175, read-out: MIC
  MIC: 2 µg/mL (≈ 2.18 µM)
[4]; isolate 20176, read-out: MIC
  MIC: 2 µg/mL (≈ 2.18 µM)
[4]; isolate 20177, read-out: MIC
  MIC: 1 µg/mL (≈ 1.09 µM)
[4]; isolate 20178, read-out: MIC
  MIC: 2 µg/mL (≈ 2.18 µM)
[4]; isolate 20224, read-out: MIC
  MIC: 4 µg/mL (≈ 4.37 µM)
[4]; isolate 20312, read-out: MIC
  MIC: 4 µg/mL (≈ 4.37 µM)
[4]; isolate 20321, read-out: MIC
  MIC: 0.5 µg/mL (≈ 0.546 µM)
[4]; isolate 20472, read-out: MIC
  MIC: 16 µg/mL (≈ 17.5 µM)
[4]; isolate 20473, read-out: MIC
  MIC: 32 µg/mL (≈ 34.9 µM)
[4]; isolate 20474, read-out: MIC
  MIC: 16 µg/mL (≈ 17.5 µM)
[4]; isolate 20475, read-out: MIC
  MIC: 32 µg/mL (≈ 34.9 µM)
[4]; read-out: MIC range (sensitivity), avian field isolates
  MIC: 0.06 to 32 µg/mL (≈ 0.0655 to 34.9 µM)

Reference: US6130250A, “Veterinary use of a pleuromutilin derivative” (priority 1996, dated 2000)
